Data: patent US9694024B2 (priority 2010, dated 2017)

Assays:
NRTI resistant HIV = assay: microbe, parasite or virus in culture; format: cell-based
NRTI-resistant HIV = assay: microbe, parasite or virus in culture; format: cell-based

**Q.** Which “fold more potent than tenofovir (TFV) against HIV” value (NRTI resistant HIV) does the source give for `CCCCCCCCCCCCCCCCOCCCOP(=O)(O)CO[C@H](C)Cn1cnc2c(N)ncnc21` [CMX157, 3-(hexadecyloxy)propyl hydrogen ((R)-1-(6-amino-9H-purin 9-yl)propan-2-yloxy)methylphosphonate] here?
**A.** Its value is “greater than 300 fold”.

**Q.** What about the EC50 (NRTI resistant HIV; Human immunodeficiency virus 1, read-out: EC50, PHENOSENSE assay, 62V/69SVG/75I/215I) of the same compound?
**A.** Its EC50 is 57 nM.

**Q.** What about the EC50 (NRTI resistant HIV; Human immunodeficiency virus 1, read-out: EC50, PHENOSENSE assay, 74V/184V) of the same compound?
**A.** The EC50 was 0.66 nM.

**Q.** And the EC50 (NRTI resistant HIV; Human immunodeficiency virus 1, read-out: EC50 for M41L/L210W/T215Y mutants, average)?
**A.** Its EC50 is 6.3 nM.

**Q.** What about the IC50 (NRTI resistant HIV; Human immunodeficiency virus 1, read-out: IC50 for 41L/210W/215Y, average, with 184V) of the same compound?
**A.** The IC50 was 2.2 nM.

**Q.** What about the IC50 (NRTI resistant HIV; Human immunodeficiency virus 1, read-out: IC50 for 41L/210W/215Y, average, without 184V) of the same compound?
**A.** The IC50 was 6.3 nM.

**Q.** And the IC50 (NRTI resistant HIV; Human immunodeficiency virus 1, read-out: IC50s against NRTI resistant HIV in a PHENOSENSE assay)?
**A.** Its IC50 is 1 to 57 nM.

**Q.** What about the IC50 (NRTI-resistant HIV; Human immunodeficiency virus 1, PBMC, HIV RT genotype 41L/67N/70R/215F/219E, PBMCs) of the same compound?
**A.** Its IC50 is 3.8 nM.

**Q.** And the IC50 (NRTI-resistant HIV; Human immunodeficiency virus 1, PBMC, HIV RT genotype 41L/67N/210W/215Y, PBMCs)?
**A.** The IC50 was 19 nM.

**Q.** And the IC50 (NRTI-resistant HIV; Human immunodeficiency virus 1, PBMC, HIV RT genotype 41L/67N/210W/215Y/184V, PBMCs)?
**A.** Its IC50 is 3.1 nM.

**Q.** What about the IC50 (NRTI-resistant HIV; Human immunodeficiency virus 1, PBMC, HIV RT genotype 41L/210W/215Y/184V/69SSS, PBMCs) of the same compound?
**A.** Its IC50 is 9 nM.

**Q.** What about the IC50 (NRTI-resistant HIV; Human immunodeficiency virus 1, PBMC, HIV RT genotype 65R/184V, PBMCs) of the same compound?
**A.** Its IC50 is 1.8 nM.

**Q.** What about the IC50 (NRTI-resistant HIV; Human immunodeficiency virus 1, PBMC, HIV RT genotype 75I/77L/116Y/151M/184V, PBMCs) of the same compound?
**A.** The IC50 was 5 nM.

**Q.** And the IC50 (NRTI-resistant HIV; Human immunodeficiency virus 1, PBMC, read-out: IC50s against NRTI resistant HIV in PBMCs)?
**A.** Its IC50 is 2 to 19 nM.

**Q.** What about the “fold more potent than tenofovir” value (NRTI-resistant HIV; NRTI resistant HIV in PBMCs) of the same compound?
**A.** The value was 500-1000 fold.

**Q.** What does the source list for `C[C@H](Cn1cnc2c(N)ncnc21)OCP(=O)(O)O` [Tenofovir, (R)-9-(2-phosphonylmethoxypropyl)adenine, reference compound]?
**A.** EC50 (NRTI resistant HIV; 62V/69SVG/75I/215I, read-out: EC50, PHENOSENSE assay): 17000 nM; EC50 (NRTI resistant HIV; 74V/184V, read-out: EC50, PHENOSENSE assay): 227 nM; EC50 (NRTI resistant HIV; read-out: EC50 for M41L/L210W/T215Y mutants, average): 2240 nM; IC50 (NRTI resistant HIV; with 184V, read-out: IC50 for 41L/210W/215Y, average): 770 nM; IC50 (NRTI resistant HIV; without 184V, read-out: IC50 for 41L/210W/215Y, average): 2240 nM; IC50 (NRTI-resistant HIV; HIV RT genotype 41L/67N/70R/215F/219E, PBMCs, read-out: IC50): 6520 nM; IC50 (NRTI-resistant HIV; HIV RT genotype 41L/67N/210W/215Y, PBMCs, read-out: IC50): > 8510 nM; IC50 (NRTI-resistant HIV; HIV RT genotype 41L/67N/210W/215Y/184V, PBMCs, read-out: IC50): 5390 nM; IC50 (NRTI-resistant HIV; HIV RT genotype 41L/210W/215Y/184V/69SSS, PBMCs, read-out: IC50): > 6470 nM; IC50 (NRTI-resistant HIV; HIV RT genotype 65R/184V, PBMCs, read-out: IC50): 1040 nM; IC50 (NRTI-resistant HIV; HIV RT genotype 75I/77L/116Y/151M/184V, PBMCs, read-out: IC50): > 6490 nM

Like-named read-outs stand apart in the source and are kept apart here.
